Results published in PMC4977824.
These are yes or no findings as the source states them, for the method shown. For some assays here: In cells and extracts the contact can be indirect. Some binding calls cover weakened binding; strength is not graded here.

Chains of the proteins cited; added tags and fusions are not shown.
UniProt Q05062: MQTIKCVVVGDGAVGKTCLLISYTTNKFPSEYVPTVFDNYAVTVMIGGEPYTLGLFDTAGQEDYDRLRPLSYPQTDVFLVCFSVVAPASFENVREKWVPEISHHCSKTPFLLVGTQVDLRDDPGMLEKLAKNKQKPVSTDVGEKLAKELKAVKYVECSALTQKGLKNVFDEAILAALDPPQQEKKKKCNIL

T1: ATAD-3 (endogenous) (C. elegans (endogenous in whole animals and embryos)) (UniProt Q20748)
T1 sequence: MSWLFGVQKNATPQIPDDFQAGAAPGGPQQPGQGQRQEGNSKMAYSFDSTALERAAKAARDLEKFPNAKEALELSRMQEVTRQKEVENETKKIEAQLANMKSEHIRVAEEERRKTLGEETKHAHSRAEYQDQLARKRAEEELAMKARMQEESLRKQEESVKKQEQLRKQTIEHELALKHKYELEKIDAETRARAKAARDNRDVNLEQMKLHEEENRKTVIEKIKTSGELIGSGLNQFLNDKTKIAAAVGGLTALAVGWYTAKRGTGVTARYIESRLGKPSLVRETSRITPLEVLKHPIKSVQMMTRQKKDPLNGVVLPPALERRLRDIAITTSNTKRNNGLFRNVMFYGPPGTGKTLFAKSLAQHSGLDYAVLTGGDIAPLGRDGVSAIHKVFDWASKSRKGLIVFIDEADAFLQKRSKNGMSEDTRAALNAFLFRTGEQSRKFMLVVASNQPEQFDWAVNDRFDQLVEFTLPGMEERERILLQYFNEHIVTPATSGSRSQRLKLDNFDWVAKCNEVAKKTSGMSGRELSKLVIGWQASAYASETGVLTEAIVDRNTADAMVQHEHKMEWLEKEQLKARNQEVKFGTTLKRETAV

T2: DLG-1 (endogenous) (C. elegans (endogenous in embryos)) (UniProt G5ECY0)
T2 sequence: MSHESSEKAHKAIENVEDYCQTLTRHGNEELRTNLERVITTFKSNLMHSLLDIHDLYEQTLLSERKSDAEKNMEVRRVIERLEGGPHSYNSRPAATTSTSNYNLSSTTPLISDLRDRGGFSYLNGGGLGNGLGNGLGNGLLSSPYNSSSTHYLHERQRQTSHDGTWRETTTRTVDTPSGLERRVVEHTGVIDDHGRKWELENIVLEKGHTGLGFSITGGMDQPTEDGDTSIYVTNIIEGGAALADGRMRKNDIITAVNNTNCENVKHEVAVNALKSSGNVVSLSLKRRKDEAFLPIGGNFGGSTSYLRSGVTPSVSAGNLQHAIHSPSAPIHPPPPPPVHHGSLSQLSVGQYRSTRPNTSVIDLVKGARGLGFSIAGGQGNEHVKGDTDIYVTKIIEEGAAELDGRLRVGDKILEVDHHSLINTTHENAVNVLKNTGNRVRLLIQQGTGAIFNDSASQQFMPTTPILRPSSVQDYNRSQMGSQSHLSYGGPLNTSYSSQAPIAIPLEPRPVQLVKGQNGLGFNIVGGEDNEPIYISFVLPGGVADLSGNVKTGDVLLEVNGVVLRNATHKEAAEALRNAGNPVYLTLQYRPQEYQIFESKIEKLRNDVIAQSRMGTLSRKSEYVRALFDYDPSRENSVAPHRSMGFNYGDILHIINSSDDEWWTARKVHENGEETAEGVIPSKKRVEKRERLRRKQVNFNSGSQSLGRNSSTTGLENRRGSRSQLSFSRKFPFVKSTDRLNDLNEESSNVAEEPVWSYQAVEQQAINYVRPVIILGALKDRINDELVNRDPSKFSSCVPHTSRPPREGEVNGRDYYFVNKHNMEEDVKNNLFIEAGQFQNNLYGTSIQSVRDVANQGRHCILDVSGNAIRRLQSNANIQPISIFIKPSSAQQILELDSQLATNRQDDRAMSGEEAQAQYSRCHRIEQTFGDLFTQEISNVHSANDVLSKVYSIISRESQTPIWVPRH

B1: RHI-1 (protein, UniProt Q20496 1-191)
chain: MSDHENTGENTSEYQYKQPPQKSIDELLNADKEDESLKVYKAKLLGQGTVIVDEKNPLRVIVRSVELLINGKTAQSFDLSDPAKLVNSDLSVSIKEGSNYRLSFAFHVQREITSGLHYKHKVKRSGITVENEKYMMGSYAPKLEIQEYKSPNEEAPSGMMHRGKYKVYSKITDDDNNVYLDWQWTLHITKE
B2: DLG-1 (endogenous) (protein, UniProt G5ECY0 1-967)
chain: T2 sequence
B3: ATAD-3 (endogenous) (protein, UniProt Q20748 1-595)
chain: T1 sequence
B4: ATAD-3^FL (full-length ATAD-3 transgene) (protein, UniProt Q20748 1-595)
chain: T1 sequence
B5: ATAD-3^ΔETAV (ATAD-3 lacking the C-terminal four amino acids) (domain or fragment, UniProt Q20748 1-591)
chain: MSWLFGVQKNATPQIPDDFQAGAAPGGPQQPGQGQRQEGNSKMAYSFDSTALERAAKAARDLEKFPNAKEALELSRMQEVTRQKEVENETKKIEAQLANMKSEHIRVAEEERRKTLGEETKHAHSRAEYQDQLARKRAEEELAMKARMQEESLRKQEESVKKQEQLRKQTIEHELALKHKYELEKIDAETRARAKAARDNRDVNLEQMKLHEEENRKTVIEKIKTSGELIGSGLNQFLNDKTKIAAAVGGLTALAVGWYTAKRGTGVTARYIESRLGKPSLVRETSRITPLEVLKHPIKSVQMMTRQKKDPLNGVVLPPALERRLRDIAITTSNTKRNNGLFRNVMFYGPPGTGKTLFAKSLAQHSGLDYAVLTGGDIAPLGRDGVSAIHKVFDWASKSRKGLIVFIDEADAFLQKRSKNGMSEDTRAALNAFLFRTGEQSRKFMLVVASNQPEQFDWAVNDRFDQLVEFTLPGMEERERILLQYFNEHIVTPATSGSRSQRLKLDNFDWVAKCNEVAKKTSGMSGRELSKLVIGWQASAYASETGVLTEAIVDRNTADAMVQHEHKMEWLEKEQLKARNQEVKFGTTLKR

Columns and labels:
[1] = biological target: GTA::CDC-42 (Avi-2xTEV-GFP::CDC-42) (C. elegans) (UniProt Q05062); assay: co-purification (independent experiment, not shown; detection not stated); independent experiment, data not shown
[2] = biological target: T1, ATAD-3 (endogenous) (C. elegans (endogenous in whole animals and embryos)); assay: co-IP; C. elegans embryo lysate (20 mM Tris-HCl pH 7.8, 250 mM NaCl, 15 % glycerol, 1 % Triton X-100), 1 mg protein, IP with anti-PSD95 (DLG-1) or anti-ATAD-3 on protein G or A Sepharose, 1 h at 4 °C, western blot; controls with RNAi against gfp, dlg-1 or atad-3
[3] = biological target: T2, DLG-1 (endogenous) (C. elegans (endogenous in embryos)); assay: as above

Binder	binding [3]	also measured
B1	–	binding [1]: binds
B2	–	binding [2]: binds
B3	binds	–
B4	binds	–
B5	no binding	–
